# Experimental data: the supplement of paper PMC10338343
# ± gives the standard deviation. This is a selection; strong and weak results do not stand in their true shares.
# System: MIWI (PIWIL1) piRISC loaded with piRNA #1 (30 nt)
# Assay: pre-steady-state target cleavage rate (min^-1); MIWI and MILI are mouse PIWI proteins and EfPiwi is from a freshwater sponge; tags in brackets are library labels; higher = faster piRNA-guided slicing of the target
# Conditions: guide: piRNA #1 5'p-UGAGGUAGUAGGUUGUAUAGUAUCCAGAGG; auxiliary factor: 500 nM mouse GTSF1
# How it was run: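 The method was Cleave-'n-Seq, in which uncleaved targets from a transcribed, DNA-blocked target RNA library were sequenced after exposure to active affinity-purified piRISC carrying one synthetic guide, with or without GTSF1 partner protein. Reactions contained 0.1 nM library, 1 nM piRISC and, where present, 500 nM GTSF1 in HEPES–potassium acetate buffer at 33 °C for 0–8 or 0–960 min. Reads were normalised to depth and to weakly complementary targets, three trials were pooled, and k3 was capped at 0.0001 min^-1. The pre-steady-state cleavage rate came from a burst-and-steady-state fit.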
sequence,measurement,value
GGAGACCUAUCUAUACAACCUACAACCUCA,pre-steady-state target cleavage rate,0.298 ± 0.035
GGAGAGGUUACUAUACAACCUACUACGUCA,pre-steady-state target cleavage rate,0.0697 ± 0.012
GGAGUGGAUACUUAUACAACCUACUACCUCA,pre-steady-state target cleavage rate,1.39 ± 0.1
GGAGACCUAUGUAUAGAAGCUACUACCUCA,pre-steady-state target cleavage rate,0.00424 ± 0.0013
GGAGACCUAACGAUACAACCUACUACCUCA,pre-steady-state target cleavage rate,0.725 ± 0.14
GGAGACCUAACUAUACAACCUACUUGGAGA [g7:g21:cont:t1A],pre-steady-state target cleavage rate,0.0494 ± 0.021
CCUCUGGAUACUUUACAACCUACUUCCUCA,pre-steady-state target cleavage rate,0.372 ± 0.042
GGAGUGGAUACAAUACAACGUACUACCUCA,pre-steady-state target cleavage rate,0.454 ± 0.035
GCACUGGAUACUAUACAACCUAGUACCUCA,pre-steady-state target cleavage rate,0.493 ± 0.048
GGAGACCUAUCUAUACAACCUAUCUACCUCA,pre-steady-state target cleavage rate,0.0103 ± 0.0025
GGAGACCUAUGAUAUGAACCACUACCUCA,pre-steady-state target cleavage rate,< 0.0001
GGAGAGGUUACUAUACUACCUACUACCUCA,pre-steady-state target cleavage rate,0.776 ± 0.048
GGAGACGAUACUAUACAACCUACUACAUCA,pre-steady-state target cleavage rate,0.865 ± 0.054
CGUCUGGAUACUAUACAACCUUCUACCUCA,pre-steady-state target cleavage rate,0.477 ± 0.033
GGAGACCAUACUAUACAACGUAGUACCUCA,pre-steady-state target cleavage rate,0.123 ± 0.018
GGAGAGGAUACUAUACAACCAACUACCUGA,pre-steady-state target cleavage rate,0.0617 ± 0.0077
GGAGACCAUCACUAUACAACCUACUACCUCA,pre-steady-state target cleavage rate,1.47 ± 0.17
GGAGUGGAUUGUAUACAACCUACUACCUCA,pre-steady-state target cleavage rate,0.997 ± 0.069
CCUACUGGAUACUAUACAACCUACUACCUCA,pre-steady-state target cleavage rate,2.04 ± 0.11
CCUCUGGAUUCUAUACAACCUACUACGUCA,pre-steady-state target cleavage rate,0.598 ± 0.071
GCACUGGAUAGUAUACAACCUACUACCUCA,pre-steady-state target cleavage rate,0.771 ± 0.058
GGAGACCAUACUAUACAACGAACUACCUCA,pre-steady-state target cleavage rate,0.00598 ± 0.0026
GGAGAGGAUACUAUACAACCUACUACCACA,pre-steady-state target cleavage rate,1.03 ± 0.067
GGAGACCUUACUAUACAGACCUACUACCUCA,pre-steady-state target cleavage rate,< 0.0001
